# Test results reported in PubChem BioAssay AID686978 (National Center for Advancing Translational Sciences (NCATS), 2013).
# Among all 420,000 compounds or so, about 64,000 (15%) were called active. The shares of active, inactive and inconclusive entries below differ from those in the screen. Calls come from the whole dose curve; as a rule, active = well fitted inhibition curve with a large enough effect; inconclusive = small, poorly fitted or top-dose-only effect; inactive = flat fitted curve, though single readings scatter. Potencies of inconclusive entries are left out as doubtful fits.
# Assay: qHTS for Inhibitors of human tyrosyl-DNA phosphodiesterase 1 (TDP1): qHTS in cells in absence of CPT; note: nearly all actives have a fitted effect of over 55% in size
# Details: DT40 Tdp1-/- hTDP1 cells, no CPT, ATP luminescence, 48 h; series mostly up to 46.2 µM
# In short: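 Stably hTDP1-transfected Tdp1-null chicken DT40 cells were treated with library compounds minus camptothecin and grown for at least 48 hr at 37 °C, after which cellular ATP was quantified by luminescence.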
# Potency is the fitted concentration of half-maximal effect; tags give direction and shape of the fitted curve.
row,SMILES,Potency
1,COCCNC(=O)c1c(CSc2ccc(Cl)cc2)noc1C(=O)NCc1ccccc1,"inconclusive [inhibitor, partial curve]"
2,CC(C)NC(=O)CSc1ccccc1C(=O)N1CCN(S(=O)(=O)Cc2ccccc2)CC1,inactive
3,O=C1CN(C(=O)c2ccc(Br)o2)C(c2ccccc2)c2cc(Cl)ccc2N1 (stereo unspecified),"inconclusive [inhibitor, single point]"
4,C/C(=N/Nc1ncc(Br)cn1)c1ccc(Br)cc1,"inconclusive [inhibitor, single point]"
5,O=C(COC(=O)c1ccccc1C(=O)OCC(=O)NCCc1c[nH]c2ccccc12)NCCc1c[nH]c2ccccc12,active: 23.1 µM
6,CCc1ccc(-c2cc(C)no2)cc1S(=O)(=O)N1CCN(c2ccc(F)cc2)CC1,"inconclusive [inhibitor, partial curve]"
7,COc1cc(CN(C)C(C)C(=O)Nc2ccc([N+](=O)[O-])cc2Cl)ccc1OC(F)F (stereo unspecified),"inconclusive [inhibitor, single point]"
8,CC(C)(C)C1CCC(=O)N(CCC#N)CC1 (stereo unspecified),inactive
9,O=C(Cn1ncn2c(cc3ccccc32)c1=O)NCCC1=CCCCC1,"inconclusive [inhibitor, partial curve, poor fit]"
10,CCc1nc(CN2CCN(c3cc(C(F)(F)F)ccn3)CC2)c(C)[nH]1,active: 16.4 µM
11,COc1cc(OC)c(NC(=O)Cn2c(=O)cc(C)c3c(C)nn(-c4ccc(C)cc4)c32)cc1Cl,"inconclusive [inhibitor, full curve]"
12,CSc1ccc(-c2nc3c(C)cccn3c2Nc2ccc3c(c2)OCCO3)cc1,"inconclusive [inhibitor, single point]"
13,COc1ccc(CN2CCC[C@]3(N[C@H](c4ccc(OC)cc4)[C@@H]4C(=O)N(C)C(=O)[C@@H]43)C2=O)cc1,inactive
14,CCCc1cc(C(=O)OC)c2ccccc2n1,"inconclusive [inhibitor, partial curve, poor fit]"
15,O=c1[nH]c(CSc2ccccn2)nc2c1oc1ccccc12,inactive
16,CCc1ccc(NC(=O)c2ccc3nc(C(C)C)oc3c2)cc1,active: 18.4 µM
17,O=C1CC2(CCN(C(=O)c3cccc([N+](=O)[O-])c3)CC2)Oc2ccccc21,"inconclusive [inhibitor, partial curve]"
18,O=C(Nc1ccc(-c2csnn2)cc1)C(Cl)(Cl)Cl,active: 7.31 µM
19,Cn1cc(S(=O)(=O)N2CCCC2)cc1C(=O)NCc1ccccc1Cl,inactive
20,Cc1cccc(CCNC(=O)C2CCCN(c3ncnc4c3nc3n4CCCCC3)C2)c1 (stereo unspecified),"inconclusive [inhibitor, single point]"
21,CCN(C(=O)c1ccccc1F)c1nc(-c2ccc(OC)cc2)cs1,active: 20.6 µM
22,COC(C/C=C/[C@@H](O)[C@H](C)OCc1ccccc1)OC,inactive
23,COc1cc(NC2=Nc3cccc4cccc2c34)cc(OC)c1OC,"inconclusive [inhibitor, single point]"

row,SMILES,Potency
1,CCNC(=O)c1ccc(CSc2nc3cccnc3n2Cc2ccc(OC)cc2)cc1,"inconclusive [inhibitor, partial curve]"
2,COC(=O)[C@@]12C[C@@H](CC(=O)NCCc3ccccc3OC)C(=O)N(Cc3ccc4c(c3)OCO4)C1=CCC(C)(C)C2,"inconclusive [inhibitor, single point]"
3,Cc1ccc(S(=O)(=O)N2[C@@H](c3ccccc3F)C(C(=O)O)=CC[C@H]2c2ccc3c(c2)OCO3)cc1,inactive
4,CN(C)c1cccc(C(=O)OCC(=O)N(C)c2ccccc2)c1,inactive
5,COC(=O)c1[nH]c(C)c(/C(O)=C2\C(=O)C(=O)N(CCN3CCOCC3)C2c2ccco2)c1C (stereo unspecified),inactive
6,CC1=C(C(=O)N2CCCC(C(=O)c3cccc4ccccc34)C2)OCCO1 (stereo unspecified),active: 16.4 µM
7,COc1cc(-c2ccc3oc(-c4ccsc4)cc3c2)cc(OC)c1OC,inactive
8,CCOC(=O)N1CCC2(CC1)OC(=O)C(C)=C2C(=O)NCc1ccc(C)cc1,inactive
9,O=C(NCCN1CCC(n2c(=O)[nH]c3ccccc32)CC1)c1ccc(Cl)cc1Cl,"inconclusive [inhibitor, single point]"
10,CC(C)(C)N1C(=O)c2ccccc2NC(=O)C1C(=O)Nc1ccc(N2CCOCC2)cc1 (stereo unspecified),inactive
11,O=[N+]([O-])c1cccc(CSc2nc3ccccc3[nH]2)c1,"inconclusive [inhibitor, single point]"
12,COc1cccc2c(=O)n(CC(=O)Nc3ccc(F)cc3F)ccc12,inactive
13,CCCNC(=O)Cc1c(C)n(C(=O)c2ccc(Cl)cc2)c2ccc(OC)cc12,"inconclusive [inhibitor, single point]"
14,CCC1CCc2nc3sc(C(=O)Nc4ccc(C)cc4C)c(N)c3cc2C1 (stereo unspecified),active: 23.1 µM
15,CC(C)CNC(=S)NNC(=O)c1csc2c1CCC(C)C2 (stereo unspecified),active: 20.6 µM
16,COc1cc(C(F)(F)F)c(C(=O)N(C)c2ccc(Cl)cc2)cn1,"inconclusive [inhibitor, single point]"
17,Cc1[nH]n(C(N)=S)c(=O)c1N=Nc1cccc(C(F)(F)F)c1,"inconclusive [inhibitor, single point]"
18,CC(=O)c1cccc(NC2c3ccccc3C(=O)N2Cc2ccc3c(c2)OCO3)c1 (stereo unspecified),active: 20.6 µM
19,Cc1cc(C)c(C#N)c(SCC(=O)C2CC2)n1,"inconclusive [inhibitor, single point]"
20,O=C(c1cn(-c2ccccc2)nc1-c1cccnc1)N1CCCCC1,inactive
21,O=C(NCCc1csc(-c2cccc(F)c2)n1)c1ccccc1C(F)(F)F,"inconclusive [inhibitor, partial curve, poor fit]"
22,CC1(c2nnc(-c3ccccc3)o2)CC(c2ccccc2)=NO1 (stereo unspecified),"inconclusive [inhibitor, single point]"
23,COC(=O)CCN1CCC(c2cc(-c3cccc(C(F)(F)F)c3)n[nH]2)CC1,inactive
